# Data published in the supplement of paper PMC8813932.
# Where a name gives a salt, the structure may show the parent alone. ± gives the standard deviation of the averaged measurements. Some of the results follow. Most values come without repeats; read them as rough.
# Assays:
# Assay in all cases: log2 surviving fraction relative to plate median (drug vs vehicle, or drug+dl922-947 vs dl922-947 alone); ovarian cancer lines: OVCAR4 is platinum-sensitive while Ov4Cis resists cisplatin and Ov4Carbo carboplatin; higher = more cell survival
# Details in all cases: compound concentration: 10 uM, 192 h
# OVCAR4 = tested on: OVCAR4
# Ov4Carbo = tested on: Ov4Carbo
# Ov4Cis = tested on: Ov4Cis
# [1] = dl922-947 oncolytic adenovirus co-treatment: MOI 10
# [2] = dl922-947 oncolytic adenovirus co-treatment: none
SMILES,log2 surviving fraction (OVCAR4; [1]),log2 surviving fraction (OVCAR4; [2]),log2 surviving fraction (Ov4Carbo; [1]),log2 surviving fraction (Ov4Carbo; [2]),log2 surviving fraction (Ov4Cis; [1]),log2 surviving fraction (Ov4Cis; [2])
CNC[C@H](O)c1ccc(O)c(O)c1 [Epinephrine bitartrate (Adrenalinium)],-0.758 ± 0.54,-0.646 ± 0.49,-1.88,-2.03,-0.914,-0.753
CCOC(CN1CCN(CC(C)C(=O)c2ccccc2)CC1)c1ccccc1 (stereo not drawn) [Eprazinone 2HCl],0.105 ± 0.18,0.356 ± 0.84,-0.113,0.793,-0.0521,0.623
CC(C)NC[C@@H](O)COc1ccc(CC(N)=O)cc1 [(R)-(+)-Atenolol],0.213 ± 0.52,-0.0945 ± 0.33,0.562,-0.0889,-0.278,0.811
CCCS(=O)(=O)Nc1ccc(F)c(C(=O)c2c[nH]c3ncc(-c4ccc(Cl)cc4)cc23)c1F [Vemurafenib (PLX4032)],1.18 ± 0.72,2.52 ± 2.8,2.35,-0.769,2.37,0.585
C[C@@H]1C[C@H]2[C@@H]3CCC4=CC(=O)C=C[C@]4(C)[C@@]3(F)[C@@H](O)C[C@]2(C)[C@@]1(O)C(=O)CO [Dexamethasone],1.17 ± 0.14,0.324 ± 0.89,1.29,1.1,2.15,-0.659
Cc1oncc1C(=O)Nc1ccc(C(F)(F)F)cc1 [Leflunomide],0.284 ± 0.34,-1.7 ± 4,0.0134,1.58,1.02,0.291
Nc1nc(CC(=O)Nc2ccc(CCNC[C@H](O)c3ccccc3)cc2)cs1 [Mirabegron (YM178)],-0.33 ± 0.95,0.221 ± 0.79,0.191,0.353,-0.296,0.0325
CCN[C@H]1C[C@H](C)S(=O)(=O)c2sc(S(N)(=O)=O)cc21 [Dorzolamide HCL],-1.24 ± 0.64,-1.39 ± 0.44,-1.65,-4.16,-0.847,-0.598
CN(C)CCc1c[nH]c2ccc(Cn3cncn3)cc12 [Rizatriptan Benzoate (Maxalt)],0.0161 ± 0.57,-0.113 ± 0.87,0.217,-0.347,0.699,0.289
CCOc1ccc(NC(C)=O)cc1 [Phenacetin],0.425 ± 0.46,-0.134 ± 0.17,0.79,0.436,-0.61,-1.02
COC(=O)Nc1nc2cc(Sc3ccccc3)ccc2[nH]1 [Fenbendazole (Panacur)],-3.16 ± 4.1,-4.21 ± 2.1,-5.01,-6.67,-1.21,-1.32
CC(=O)[C@@]1(O)CC[C@H]2[C@@H]3CCC4=CC(=O)CCC4=C3[C@@H](c3ccc(N(C)C)cc3)C[C@@]21C [Ulipristal],0.519 ± 0.53,-1.2 ± 0.092,-0.424,-1.84,-0.351,0.143
CNC1CC(N)C(O)C(OC2OC(CO)C(O)C3OC4(OC(C(N)CO)C(O)C(O)C4O)OC23)C1O (stereo not drawn) [Hygromycin B],-1.34 ± 0.43,-1.82 ± 0.53,0.564,-1.47,-1.1,-0.431
CC(=O)[C@H]1CC[C@H]2[C@@H]3C=CC4=CC(=O)CC[C@@]4(C)[C@@H]3CC[C@]12C [Dydrogesterone],0.306 ± 0.73,0.249 ± 0.0027,2.03,0.0978,0.623,-0.00157
Nc1nc(=O)c2c([nH]1)NC[C@H](CNc1ccc(C(=O)N[C@@H](CCC(=O)O)C(=O)O)cc1)N2C=O [Calcium levofolinate (Calcium Folinate)],0.575 ± 0.5,0.62 ± 0.55,0.201,0.158,0.917,1.08
CN1CCC[C@@H]1CCO[C@](C)(c1ccccc1)c1ccc(Cl)cc1 [Clemastine Fumarate],-2.4 ± 0.78,-1.86 ± 0.61,-2.09,-4.03,-3.78,-4.03
C[C@@H]1O[C@@H](O[C@H]2C[C@@H](O)[C@]3(CO)[C@H]4[C@H](O)C[C@]5(C)[C@@H](C6=CC(=O)OC6)CC[C@]5(O)[C@@H]4CC[C@]3(O)C2)[C@H](O)[C@H](O)[C@H]1O [Ouabain],-8.01 ± 0.61,-9.88 ± 6.1,-6.82,-9.92,-7.23,-13.3
C[C@H]1O[C@@H](n2cc(F)c(=O)[nH]c2=O)[C@H](O)[C@@H]1O [Doxifluridine],-0.303 ± 0.64,0.00648 ± 0.87,-0.291,-0.0347,-0.575,-0.553
